# Assay results taken from publication PMC4336329 (PLoS ONE, 2015).
# Among all 310,000 compounds or so, about 14,000 (4.5%) showed an effect of 50% or more. Effects have a minus sign here. The list shows a part of the results.
# Target: human ether-à-go-go-related gene (hERG) potassium channel (human, UniProt Q12809)
# Assay: primary screen, population patch clamp on CHO cells stably expressing hERG
# 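Note: peak tail current of the secondary pulse compared with the same well before compound.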
# human ether-à-go-go-related gene (hERG) potassium channel, sequence (Q12809 whole entry, looked up): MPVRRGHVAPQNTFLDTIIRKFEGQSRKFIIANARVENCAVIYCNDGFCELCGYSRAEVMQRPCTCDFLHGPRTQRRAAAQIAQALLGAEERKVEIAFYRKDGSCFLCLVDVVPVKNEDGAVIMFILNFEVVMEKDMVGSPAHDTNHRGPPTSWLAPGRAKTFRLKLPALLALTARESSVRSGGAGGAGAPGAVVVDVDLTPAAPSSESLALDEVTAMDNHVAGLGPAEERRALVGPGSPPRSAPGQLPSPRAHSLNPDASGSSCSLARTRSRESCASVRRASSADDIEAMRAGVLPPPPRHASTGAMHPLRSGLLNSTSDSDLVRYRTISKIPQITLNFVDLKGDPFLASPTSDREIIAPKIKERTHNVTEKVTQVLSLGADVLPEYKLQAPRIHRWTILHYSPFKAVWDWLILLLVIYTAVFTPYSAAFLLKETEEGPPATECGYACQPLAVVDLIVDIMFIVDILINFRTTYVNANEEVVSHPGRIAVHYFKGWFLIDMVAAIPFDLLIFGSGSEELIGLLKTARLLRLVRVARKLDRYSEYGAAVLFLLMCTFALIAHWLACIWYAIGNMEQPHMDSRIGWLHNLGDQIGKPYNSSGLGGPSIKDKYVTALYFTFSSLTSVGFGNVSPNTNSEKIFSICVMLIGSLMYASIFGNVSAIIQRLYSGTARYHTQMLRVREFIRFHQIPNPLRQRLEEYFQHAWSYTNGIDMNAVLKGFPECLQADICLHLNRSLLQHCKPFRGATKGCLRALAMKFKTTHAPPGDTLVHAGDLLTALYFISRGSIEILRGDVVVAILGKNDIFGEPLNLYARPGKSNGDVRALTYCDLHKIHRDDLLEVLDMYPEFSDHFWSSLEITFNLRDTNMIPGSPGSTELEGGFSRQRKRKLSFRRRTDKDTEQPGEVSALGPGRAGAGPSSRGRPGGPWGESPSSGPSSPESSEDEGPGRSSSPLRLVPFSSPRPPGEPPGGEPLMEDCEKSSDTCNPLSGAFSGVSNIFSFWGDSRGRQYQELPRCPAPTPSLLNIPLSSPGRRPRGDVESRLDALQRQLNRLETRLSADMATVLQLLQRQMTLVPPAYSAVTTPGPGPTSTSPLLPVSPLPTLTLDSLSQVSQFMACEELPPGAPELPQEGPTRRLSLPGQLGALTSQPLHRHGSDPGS
row,SMILES,"hERG current change (%, negative = inhibition) at 10uM"
1,O=C(CN(C(=O)CCC(=O)Nc1nccs1)c1ccccc1F)NCC1CCCO1 (centres unmarked),5.7%
2,Cc1sc2ncn(CC(=O)OCC(=O)NC(C)(C)C)c(=O)c2c1C,14.3%
3,CCOC(=O)c1c(C)[nH]c2c1cc(O)c1ccccc12,-1.97%
4,CCN(CC)S(=O)(=O)c1ccc(NC(=O)c2ccc(CN3CCOCC3)cc2)cc1,-0.516%
5,CC(=O)n1cc(C2C(=O)CC(C)(C)CC2=O)c2ccccc21,2.39%
6,Cc1oc(/N=C/c2ccc(Cl)cc2)c(C#N)c1C,1.21%
7,O=C(NC1CCCC1)C(c1ccsc1)N(Cc1ccco1)C(=O)Cc1cccs1 (centres unmarked),-16.1%
8,O=S(=O)(/N=C(/c1ccccc1)N1CCOCC1)c1ccc(F)cc1,23.7%
9,CC1=C(C#N)C(Nc2ccc(Cl)cn2)(C(F)(F)F)C(=O)N1 (centres unmarked),2.3%
10,C[C@H]1CCC2[C@](C)(CO)[C@@H](O)CC[C@]2(C)[C@@]12CCC(CO)(CCO)O2 (some centres unmarked),25.2%
11,CC1CCN(c2ccc(-c3cccc(NC(=O)c4ccco4)c3)nn2)CC1,-28.8%
12,Cc1cccc2sc(NC(=O)C3CSC4(C)CCC(=O)N34)nc12 (centres unmarked),-9.84%
13,COCCNC(=O)CSc1nc(-c2ccccc2)c(-c2ccccc2)o1,-35.9%
14,CC(=O)Nc1ccc(NC(=O)CSc2nnc(-c3cc4ccccc4o3)n2C)cc1,2.16%
15,Fc1ccc(N/N=C/c2cccnc2)c(F)c1,24.4%
16,CN(C)C1=NCCN1CC1CCCC1,16.3%
17,COCCCNC(=O)c1ccc(S(=O)(=O)c2ccc(Cl)cc2)c(NC(C)=O)c1,8.79%
18,Cc1ccc(Cl)cc1NC(=S)Nn1cnnc1,15.9%
19,CN1C(=O)/C(=C\c2ccc(N3CCCCCC3)cc2)C(=O)NC1=S,23.8%
20,CC1(C)CCN2CCC(C)(C)c3c(O)ccc1c32.CS(=O)(=O)O,6.38%

row,SMILES,"hERG current change (%, negative = inhibition) at 10uM"
1,COc1ccc(CCNS(=O)(=O)CCNC(=O)c2ccccc2)cc1,-5.82%
2,O=C(NC1CC1)c1nc(Cn2cc([N+](=O)[O-])cn2)no1,15.9%
3,COCCNCC1C(Oc2ccc(Cl)cc2)C(=O)N1c1ccccc1C.Cl (centres unmarked),-8.44%
4,CC1CCCC(NC(=S)NC(=O)c2ccccc2Br)C1C (centres unmarked),8.97%
5,Cc1ccc(-c2cnc3c(Cl)c(C)nn3c2)cc1,9.33%
6,COc1ccc(/C=C2/SC(=S)N(c3ccc(S(=O)(=O)Nc4nccs4)cc3)C2=O)cc1,13%
7,CCOc1ccccc1-c1nc(-c2ccc(NC(=O)Cc3ccc(OC)cc3)cc2)no1,16.8%
8,COC(=O)c1cc(=O)nc2sc3ccccc3n12,5.1%
9,NC(=O)[C@@H]1CCNc2c(I)cc([N+](=O)[O-])cc2C(=O)N[C@@H](CCC(=O)O)C(=O)N[C@@H](CO)C(=O)N1,25%
10,Cn1c(=O)c2c(nc(OCc3cccnc3)n2Cc2c(F)cccc2Cl)n(C)c1=O,1.03%
11,O=C(NCCN1CCCC(O)C1)c1cc(COc2ccc(F)cc2Cl)on1 (centres unmarked),-23%
12,C=CCn1c(O)c(C2=c3ccccc3=NC2=O)sc1=Nc1ccc(O)cc1,-13.4%
13,CCc1ccc(NC(=O)Cn2nc(C)n3cccc3c2=O)cc1,15%
14,COC(=O)c1cscc1S(=O)(=O)Cc1ccccc1,5.98%
15,COc1cccc(N=Nc2c(N)[nH][nH]c2=O)c1,8.67%
16,CCOc1ccc(C(=S)N2CCCC2)cc1OC,20.1%
17,Cc1noc(C(=O)Nc2ccc3c(c2)OCO3)c1Cl,-1.49%
18,C=CCN(CC(=O)Nc1c(C)cccc1CC)C(=O)SCCC,1.41%
19,CCn1cc(CNC(=O)C2CCC(=O)N(Cc3ccc(Cl)cc3)C2)cn1 (centres unmarked),-14.2%
20,COc1ccc(-c2nc(CN3CCC(C(=O)N4CCOCC4)CC3)c(C)o2)cc1C,-6.98%

row,SMILES,"hERG current change (%, negative = inhibition) at 10uM"
1,CCC(CC)c1nc2cc(OC)c(OC)cc2c(=O)o1,18.2%
2,O=C(O)C1CC(=O)N(c2ccc(Br)cc2)C1 (centres unmarked),4.94%
3,COCCN=C1NN=C(c2ccc(NC(C)=O)cc2)CS1,8.57%
4,CCN(CC)S(=O)(=O)c1ccc(N2CCOCC2)c(NC(=O)COc2ccccc2C#N)c1,-3.3%
5,Cc1ccc(NC(=O)c2sccc2SCc2cccc(C(F)(F)F)c2)cc1,25%
6,Cc1ccc(N2C(=O)c3n[nH]c(C)c3C2c2ccco2)cc1 (centres unmarked),-7.79%
7,CNC(=S)NNC(=O)c1cccc(C(F)(F)F)c1,2.73%
8,COP(=O)(OC)C(Nc1ccccc1)c1ccccc1 (centres unmarked),11.4%
9,C(#CCN1CCOCC1)COCC#Cc1ccccc1.Cl,-2.16%
10,O=C(c1ccc2c(c1)OCO2)N1CCN(S(=O)(=O)c2ccc(Br)cc2Cl)CC1,-40.6%
11,O=C(O)CCCC(=O)N1CCOCCOCCOCCOCC1,17.1%
12,Cc1cc2ncn(/N=C/c3ccc4c(c3)OCO4)c2cc1C,10.9%
13,C=CCC(C(=O)OC)(C(=O)OC)c1ccc([N+](=O)[O-])cn1,-9.74%
14,O=C(NCCc1ccccc1)C1CCC(CNc2c(N3CCCCC3)c(=O)c2=O)CC1 (centres unmarked),18.6%
15,COc1ccc(CCNC(=O)/C(C#N)=C/c2cccc(OCc3ccccc3)c2)cc1OC,-3.66%
16,O=C(O)CCNC(=O)c1ccc(NC(=O)Cc2ccc(Cl)cc2)cc1,21.8%
17,NC(=O)NC(=O)COC(=O)c1cccnc1Nc1ccccc1F,14.1%
18,S=C(NCc1ccccc1)NCc1ccccc1Cl,5.84%
19,COC(=O)C1=CN(c2cc(C)cc(C)c2)C=C(C(=O)OC)C1c1cccc(F)c1,26.8%
